Assay results as given in the supplement of paper PMC12015411.
Bacterial growth in Mueller-Hinton broth at 37 °C with the drug at the dose given, alone or with nitroxoline. Checkerboards on E. coli BW25113: OD600 at the end of exponential growth as a fraction of no-drug wells. Colistin series: OD595 at 10.75 h as a fraction of the colistin-free well. 1 = full growth, lower = more inhibition. No active / inactive call per well. Checkerboard doses stop near each drug's IC75, and their values pile up at 1, as if capped there. Colistin and gentamicin are mixtures; one drawing stands for each.

Tested on: Escherichia coli BW25113
Experiment: growth relative to no-drug wells (fraction of no-drug control); higher = more growth, less inhibition
Method: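 8 x 8 checkerboard in cation-adjusted Mueller-Hinton broth at 37 °C; OD600 at the end of exponential growth as a fraction of no-drug wells, two biological replicates.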

C[C@@H](O)[C@H]1C(=O)N2C(C(=O)O)=C(SCCNC=N)C[C@H]12 [Imipenem]
nitroxoline concentration 0 µg/ml
Conditions	growth
0.025 µg/ml	0.77
0.043 µg/ml	0.741
0.05 µg/ml	0.827
0.086 µg/ml	0.629
0.1 µg/ml	0.491
0.172 µg/ml	0.172
0.2 µg/ml	0.181

C[C@@H](O)[C@H]1C(=O)N2C(C(=O)O)=C(SCCNC=N)C[C@H]12 [Imipenem] + Oc1ccc([N+](=O)[O-])c2cccnc12 [nitroxoline]
growth
Conditions	nitroxoline concentration 0.136 µg/ml	nitroxoline concentration 0.255 µg/ml	nitroxoline concentration 0.374 µg/ml	nitroxoline concentration 0.493 µg/ml	nitroxoline concentration 0.612 µg/ml	nitroxoline concentration 0.731 µg/ml	nitroxoline concentration 0.85 µg/ml
0.025 µg/ml	1	0.925	0.812	0.651	0.563	0.527	0.48
0.043 µg/ml	0.868	0.8531	0.771	0.642	0.541	0.52	0.5198
0.05 µg/ml	0.777	0.806	0.7868	0.674	0.542	0.525	0.505
0.086 µg/ml	0.569	0.662	0.689	0.648	0.595	0.502	0.511
0.1 µg/ml	0.444	0.632	0.691	0.631	0.604	0.535	0.473
0.172 µg/ml	0.219	0.334	0.439	0.4375	0.403	0.39	0.383
0.2 µg/ml	0.228	0.203	0.322	0.329	0.36	0.305	0.316

C[C@H]1COc2c(N3CCN(C)CC3)c(F)cc3c(=O)c(C(=O)O)cn1c23 [Levofloxacin]
nitroxoline concentration 0 µg/ml
Conditions	growth
0.0005 µg/ml	0.968
0.0009 µg/ml	0.935
0.0013 µg/ml	0.936
0.0017 µg/ml	0.945
0.0022 µg/ml	0.938
0.0026 µg/ml	0.96
0.003 µg/ml	0.988

C[C@H]1COc2c(N3CCN(C)CC3)c(F)cc3c(=O)c(C(=O)O)cn1c23 [Levofloxacin] + Oc1ccc([N+](=O)[O-])c2cccnc12 [nitroxoline]
growth
Conditions	nitroxoline concentration 0.136 µg/ml	nitroxoline concentration 0.255 µg/ml	nitroxoline concentration 0.374 µg/ml	nitroxoline concentration 0.493 µg/ml	nitroxoline concentration 0.612 µg/ml	nitroxoline concentration 0.731 µg/ml	nitroxoline concentration 0.85 µg/ml
0.0005 µg/ml	0.869	0.743	0.576	0.506	0.463	0.3119	0.243
0.0009 µg/ml	0.888	0.747	0.623	0.383	0.455	0.319	0.268
0.0013 µg/ml	0.92	0.774	0.507	0.499	0.423	0.294	0.24
0.0017 µg/ml	0.87831	0.732	0.5023	0.344	0.368	0.301	0.254
0.0022 µg/ml	0.844	0.8	0.564	0.333	0.2793	0.251	0.251
0.0026 µg/ml	0.868	0.66	0.424	0.382	0.303	0.263	0.254
0.003 µg/ml	0.929	0.641	0.358	0.4	0.262	0.299	0.232

CC1(C)S[C@@H]2[C@H](/N=C/N3CCCCCC3)C(=O)N2[C@H]1C(=O)O [Mecillinam]
nitroxoline concentration 0 µg/ml
Conditions	growth
0.0008 µg/ml	0.97
0.0013 µg/ml	0.937
0.0015 µg/ml	0.948
0.0025 µg/ml	0.911
0.003 µg/ml	0.929
0.005 µg/ml	0.814
0.006 µg/ml	0.77
